Results reported in the supplement of paper PMC8728848.
This is one part of the list.

Tests used:
Test in all cases: glycan array binding signal (z-score within array); higher = stronger binding
Settings in all cases: glycan notation: IUPAC condensed, linker removed
[1] = target: Neu5Ac(a2-3)Gal(b1-3)GlcNAc6S
Outline: (§1)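 Arrays were curated from the Consortium for Functional Glycomics database, 3228 in total, and kept only where the protein sequence was available. Binding is expressed as a within-array Z-score. This score was averaged across arrays of the same protein sequence at different concentrations or buffers and across linkers, and negative values can be read as non-binding.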

[2] = target: Neu5Ac(a2-3)Gal(b1-3)[Fuc(a1-4)]GlcNAc
Outline: as §1

[3] = target: Neu5Ac(a2-3)Gal(b1-3)[Fuc(a1-4)]GlcNAc(b1-3)Gal(b1-3)[Fuc(a1-4)]GlcNAc
Outline: as §1

[4] = target: Neu5Ac(a2-3)Gal(b1-3)[Fuc(a1-4)]GlcNAc(b1-3)Gal(b1-4)[Fuc(a1-3)]GlcNAc
Outline: as §1

[5] = target: Neu5Ac(a2-3)Gal(b1-3)[GlcNAc(b1-6)]GalNAc
Outline: as §1

[6] = target: Neu5Ac(a2-3)Gal(b1-3)[Neu5Ac(a2-6)]GalNAc
Outline: as §1

[7] = target: Neu5Ac(a2-3)Gal(b1-3)[Neu5Ac(a2-6)]GlcNAc(b1-3)[Fuc(a1-3)[Gal(b1-4)]GlcNAc(b1-6)]Gal(b1-4)Glc
Outline: as §1

[8] = target: Neu5Ac(a2-3)Gal(b1-3)]Neu5Ac(a2-3)Gal(b1-4)]GlcNAc
Outline: as §1

Neu5Ac(a2-3)Gal(b1-4)Glc = target: Neu5Ac(a2-3)Gal(b1-4)Glc
Outline: as §1

[9] = target: Neu5Ac(a2-3)Gal(b1-4)GlcNAc
Outline: as §1

[10] = target: Neu5Ac(a2-3)Gal(b1-4)GlcNAc(b1-2)Man
Outline: as §1

[11] = target: Neu5Ac(a2-3)Gal(b1-4)GlcNAc(b1-2)Man(a1-3)[GlcNAc(b1-4)][Neu5Ac(a2-3)Gal(b1-4)GlcNAc(b1-2)Man(a1-6)]Man(b1-4)GlcNAc(b1-4)GlcNAc
Outline: as §1

[12] = target: Neu5Ac(a2-3)Gal(b1-4)GlcNAc(b1-2)Man(a1-3)[Neu5Ac(a2-3)Gal(b1-4)GlcNAc(b1-2)Man(a1-6)]Man(b1-4)GlcNAc(b1-4)GlcNAc
Outline: as §1

[13] = target: Neu5Ac(a2-3)Gal(b1-4)GlcNAc(b1-2)Man(a1-3)[Neu5Ac(a2-3)Gal(b1-4)GlcNAc(b1-2)Man(a1-6)]Man(b1-4)GlcNAc(b1-4)[Fuc(a1-6)]GlcNAc
Outline: as §1

[14] = target: Neu5Ac(a2-3)Gal(b1-4)GlcNAc(b1-2)Man(a1-3)[Neu5Ac(a2-6)Gal(b1-4)GlcNAc(b1-2)Man(a1-6)]Man(b1-4)GlcNAc(b1-4)GlcNAc
Outline: as §1

[15] = target: Neu5Ac(a2-3)Gal(b1-4)GlcNAc(b1-2)[Neu5Ac(a2-3)Gal(b1-4)GlcNAc(b1-4)]Man(a1-3)[GlcNAc(b1-4)][Neu5Ac(a2-3)Gal(b1-4)GlcNAc(b1-2)[Neu5Ac(a2-3)Gal(b1-4)GlcNAc(b1-6)]Man(a1-6)]Man(b1-4)GlcNAc(b1-4)GlcNAc
Outline: as §1

[16] = target: Neu5Ac(a2-3)Gal(b1-4)GlcNAc(b1-2)[Neu5Ac(a2-3)Gal(b1-4)GlcNAc(b1-4)]Man(a1-3)[GlcNAc(b1-4)][Neu5Ac(a2-3)Gal(b1-4)GlcNAc(b1-4)Man(a1-6)]Man(b1-4)GlcNAc(b1-4)GlcNAc
Outline: as §1

[17] = target: Neu5Ac(a2-3)Gal(b1-4)GlcNAc(b1-2)[Neu5Ac(a2-3)Gal(b1-4)GlcNAc(b1-6)]Man(a1-6)[Neu5Ac(a2-3)Gal(b1-4)GlcNAc(b1-2)Man(a1-3)]Man(b1-4)GlcNAc(b1-4)GlcNAc
Outline: as §1

[18] = target: Neu5Ac(a2-3)Gal(b1-4)GlcNAc(b1-2)[Neu5Ac(a2-3)Gal(b1-4)GlcNAc(b1-6)]Man(a1-6)[Neu5Ac(a2-3)Gal(b1-4)GlcNAc(b1-2)Man(a1-3)][GlcNAc(b1-4)]Man(b1-4)GlcNAc(b1-4)GlcNAc
Outline: as §1

[19] = target: Neu5Ac(a2-3)Gal(b1-4)GlcNAc(b1-3)Gal
Outline: as §1

[20] = target: Neu5Ac(a2-3)Gal(b1-4)GlcNAc(b1-3)Gal(b1-3)GlcNAc
Outline: as §1

[21] = target: Neu5Ac(a2-3)Gal(b1-4)GlcNAc(b1-3)Gal(b1-4)GlcNAc
Outline: as §1

[22] = target: Neu5Ac(a2-3)Gal(b1-4)GlcNAc(b1-3)Gal(b1-4)GlcNAc(b1-2)Man(a1-3)[Neu5Ac(a2-3)Gal(b1-4)GlcNAc(b1-3)Gal(b1-4)GlcNAc(b1-2)Man(a1-6)]Man(b1-4)GlcNAc(b1-4)GlcNAc
Outline: as §1

[23] = target: Neu5Ac(a2-3)Gal(b1-4)GlcNAc(b1-3)Gal(b1-4)GlcNAc(b1-3)Gal(b1-4)GlcNAc
Outline: as §1

[24] = target: Neu5Ac(a2-3)Gal(b1-4)GlcNAc(b1-3)Gal(b1-4)GlcNAc(b1-3)Gal(b1-4)GlcNAc(b1-2)Man(a1-3)[Neu5Ac(a2-3)Gal(b1-4)GlcNAc(b1-3)Gal(b1-4)GlcNAc(b1-3)Gal(b1-4)GlcNAc(b1-2)Man(a1-6)]GalNAc
Outline: as §1

[25] = target: Neu5Ac(a2-3)Gal(b1-4)GlcNAc(b1-3)Gal(b1-4)GlcNAc(b1-3)GalNAc
Outline: as §1

[26] = target: Neu5Ac(a2-3)Gal(b1-4)GlcNAc(b1-3)Gal(b1-4)GlcNAc(b1-3)[Neu5Ac(a2-3)Gal(b1-4)GlcNAc(b1-3)Gal(b1-4)GlcNAc(b1-6)]GalNAc
Outline: as §1

[27] = target: Neu5Ac(a2-3)Gal(b1-4)GlcNAc(b1-3)Gal(b1-4)GlcNAc(b1-6)[Gal(b1-3)]GalNAc
Outline: as §1

[28] = target: Neu5Ac(a2-3)Gal(b1-4)GlcNAc(b1-3)Gal(b1-4)[Fuc(a1-3)]GlcNAc
Outline: as §1

[29] = target: Neu5Ac(a2-3)Gal(b1-4)GlcNAc(b1-3)GalNAc
Outline: as §1

B1: MSMEG3662-2a (Mycobacterium smegmatis), A0QYH7_MYCS2 (protein)
chain: MGDTLTAGQKLERGGSLQSGNGAYTLTLQDDGNLVLYARDKAVWSTGTNGQDVVRAEVQTDGNFVLYTAEKPVWHTDTKGKKEVKLVLQDDRNLVLYAKDGPAWSSKTDTTEPPPPAPEPEKEAEVAPAAAEEAAPAPVAEPAPAEPAPAAPPPAPPAPRTYTVVSGDTLWAIAERFYGDGSKYQQIADASGIANPDLIHPGQVLTIP
glycan array binding signal (z-score) [1]: -0.156 | glycan array binding signal (z-score) [2]: -0.131 | glycan array binding signal (z-score) [3]: 0.061 | glycan array binding signal (z-score) [4]: -0.05 | glycan array binding signal (z-score) [5]: -0.025 | glycan array binding signal (z-score) [6]: -0.044 | glycan array binding signal (z-score) [7]: -0.141 | glycan array binding signal (z-score) [8]: 0.05 | glycan array binding signal (z-score) (Neu5Ac(a2-3)Gal(b1-4)Glc): 0.572 | glycan array binding signal (z-score) [9]: -0.035 | glycan array binding signal (z-score) [10]: 0.118 | glycan array binding signal (z-score) [11]: -0.055 | glycan array binding signal (z-score) [12]: -0.102 | glycan array binding signal (z-score) [13]: -0.026 | glycan array binding signal (z-score) [14]: -0.086 | glycan array binding signal (z-score) [15]: -0.11 | glycan array binding signal (z-score) [16]: -0.123 | glycan array binding signal (z-score) [17]: 0.088 | glycan array binding signal (z-score) [18]: -0.107 | glycan array binding signal (z-score) [19]: -0.15 | glycan array binding signal (z-score) [20]: -0.181 | glycan array binding signal (z-score) [21]: 0.065 | glycan array binding signal (z-score) [22]: 0.207 | glycan array binding signal (z-score) [23]: -0.05 | glycan array binding signal (z-score) [24]: 0.04 | glycan array binding signal (z-score) [25]: -0.087 | glycan array binding signal (z-score) [26]: -0.236 | glycan array binding signal (z-score) [27]: -0.109 | glycan array binding signal (z-score) [28]: 0.052 | glycan array binding signal (z-score) [29]: 0.101
